By IC50 is meant the dose at which the fit gives 50% viability; a fit beyond the top or the lowest dose is shown as a bound at that dose. AUC, from the same fit, is the share of area under the viability curve across the 256-fold dose range; values near 1 show little effect. An inferred top dose comes from the curve model; the source does not state it.
What was measured:
Experiment in all cases: Viability of human cancer cell lines after 72 h of drug (GDSC screen)
[1] = compound: CC(C)N(CCCNC(=O)Nc1ccc(C(C)(C)C)cc1)C[C@H]1O[C@@H](n2cc(Br)c3c(N)ncnc32)[C@H](O)[C@@H]1O [SGC0946]; details: top dose 0.5 µM; top dose inferred
Description: (§1)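 Human cancer cell lines in 384-well plates, medium with 10% serum, drug for 72 h over a 256-fold dose range (nine 2-fold or five 4-fold steps up to the top dose). Adherent lines were fixed and stained with the nucleic acid dye Syto60, suspension lines read with resazurin; signal relative to control wells, capped at 0 and 100%. One two-parameter sigmoid per drug and line, fitted in a mixed model over all curves with the slope shared within a line.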

[2] = compound: CCC/C=C/C=C/C(=O)O[C@H]1/C(=C/C(=O)OC)C[C@H]2C[C@H]([C@@H](C)O)OC(=O)C[C@H](O)C[C@@H]3C[C@H](OC(C)=O)C(C)(C)[C@](O)(C[C@@H]4C/C(=C/C(=O)OC)C[C@H](/C=C/C(C)(C)[C@]1(O)O2)O4)O3 [Bryostatin 1]; details: top dose 0.008 µM; top dose inferred
Description: as §1

[3] = compound: COc1ccc(COc2ccc(Cc3cnc(N)nc3N)cc2OC)cc1 [GW-2580]; details: top dose 20 µM; top dose inferred
Description: as §1

769-P (kidney, adherent)
AUC [1]: 0.976
IC50 [1]: > 500 nM
AUC [2]: 0.94
IC50 [2]: > 8 nM
AUC [3]: 0.955
IC50 [3]: > 20000 nM

786-0 (kidney, adherent)
AUC [1]: 0.984
IC50 [1]: > 500 nM
AUC [2]: 0.905
IC50 [2]: > 8 nM
AUC [3]: 0.973
IC50 [3]: > 20000 nM

A172 (glioma, adherent)
AUC [1]: 0.987
IC50 [1]: > 500 nM
AUC [2]: 0.988
IC50 [2]: > 8 nM
AUC [3]: 0.984
IC50 [3]: > 20000 nM

A204 (rhabdomyosarcoma, adherent)
AUC [1]: 0.975
IC50 [1]: > 500 nM
AUC [2]: 0.956
IC50 [2]: > 8 nM
AUC [3]: 0.977
IC50 [3]: > 20000 nM

A673 (rhabdomyosarcoma, adherent)
AUC [1]: 0.989
IC50 [1]: > 500 nM
AUC [2]: 0.99
IC50 [2]: > 8 nM
AUC [3]: 0.97
IC50 [3]: > 20000 nM

AN3-CA (endometrium, adherent)
AUC [1]: 0.983
IC50 [1]: > 500 nM
AUC [2]: 0.958
IC50 [2]: > 8 nM
AUC [3]: 0.978
IC50 [3]: > 20000 nM

BCPAP (thyroid, adherent)
AUC [1]: 0.988
IC50 [1]: > 500 nM
AUC [2]: 0.958
IC50 [2]: > 8 nM
AUC [3]: 0.98
IC50 [3]: > 20000 nM

BEN (non-small cell lung carcinoma, adherent)
AUC [1]: 0.985
IC50 [1]: > 500 nM
AUC [2]: 0.941
IC50 [2]: > 8 nM
AUC [3]: 0.971
IC50 [3]: > 20000 nM

BFTC-909 (kidney, adherent)
AUC [1]: 0.987
IC50 [1]: > 500 nM
AUC [2]: 0.972
IC50 [2]: > 8 nM
AUC [3]: 0.986
IC50 [3]: > 20000 nM

BHY (head and neck, adherent)
AUC [1]: 0.985
IC50 [1]: > 500 nM
AUC [2]: 0.972
IC50 [2]: > 8 nM
AUC [3]: 0.971
IC50 [3]: > 20000 nM

BICR31 (head and neck, adherent)
AUC [2]: 0.968
IC50 [2]: > 8 nM
AUC [3]: 0.985
IC50 [3]: > 20000 nM

BPH-1 (prostate, adherent)
AUC [1]: 0.979
IC50 [1]: > 500 nM
AUC [2]: 0.797
IC50 [2]: 4.24 nM
AUC [3]: 0.95
IC50 [3]: > 20000 nM

CAL-54 (kidney, adherent)
AUC [1]: 0.983
IC50 [1]: > 500 nM
AUC [2]: 0.939
IC50 [2]: > 8 nM
AUC [3]: 0.976
IC50 [3]: > 20000 nM

CAL-62 (thyroid, adherent)
AUC [1]: 0.978
IC50 [1]: > 500 nM
AUC [2]: 0.942
IC50 [2]: > 8 nM
AUC [3]: 0.983
IC50 [3]: > 20000 nM

CAL-148 (breast, suspension)
AUC [2]: 0.99
IC50 [2]: > 8 nM
AUC [3]: 0.99
IC50 [3]: > 20000 nM

CAMA-1 (breast, adherent)
AUC [1]: 0.982
IC50 [1]: > 500 nM
AUC [2]: 0.975
IC50 [2]: > 8 nM
AUC [3]: 0.967
IC50 [3]: > 20000 nM

CCRF-CEM (lymphoblastic leukaemia, suspension)
AUC [1]: 0.988
IC50 [1]: > 500 nM
AUC [2]: 0.967
IC50 [2]: > 8 nM
AUC [3]: 0.991
IC50 [3]: > 20000 nM

CHP-134 (neuroblastoma, suspension)
AUC [3]: 0.976
IC50 [3]: > 20000 nM

COLO-792 (melanoma, adherent)
AUC [1]: 0.987
IC50 [1]: > 500 nM
AUC [2]: 0.954
IC50 [2]: > 8 nM
AUC [3]: 0.979
IC50 [3]: > 20000 nM

COLO-829 (melanoma, adherent)
AUC [1]: 0.975
IC50 [1]: > 500 nM
AUC [2]: 0.89
IC50 [2]: > 8 nM
AUC [3]: 0.979
IC50 [3]: > 20000 nM

COR-L32 (small cell lung carcinoma, suspension)
AUC [1]: 0.965
IC50 [1]: > 500 nM

COR-L105 (lung adenocarcinoma, adherent)
AUC [1]: 0.979
IC50 [1]: > 500 nM
AUC [2]: 0.955
IC50 [2]: > 8 nM
AUC [3]: 0.968
IC50 [3]: > 20000 nM

COR-L303 (small cell lung carcinoma, suspension)
AUC [3]: 0.971
IC50 [3]: > 20000 nM

COR-L311 (small cell lung carcinoma, suspension)
AUC [3]: 0.974
IC50 [3]: > 20000 nM

Caov-3 (ovary, adherent)
AUC [2]: 0.991
IC50 [2]: > 8 nM
AUC [3]: 0.989
IC50 [3]: > 20000 nM

ChaGo-K-1 (non-small cell lung carcinoma, adherent)
AUC [1]: 0.983
IC50 [1]: > 500 nM
AUC [2]: 0.958
IC50 [2]: > 8 nM
AUC [3]: 0.983
IC50 [3]: > 20000 nM

DEL (lymphoid neoplasm, suspension)
AUC [1]: 0.993
IC50 [1]: > 500 nM
AUC [2]: 0.987
IC50 [2]: > 8 nM
AUC [3]: 0.994
IC50 [3]: > 20000 nM

H2810 (mesothelioma, adherent)
AUC [1]: 0.983
IC50 [1]: > 500 nM

HCC1599 (breast, suspension)
AUC [2]: 0.977
IC50 [2]: > 8 nM
AUC [3]: 0.979
IC50 [3]: > 20000 nM

HCT-116 (large intestine, adherent)
AUC [2]: 0.952
IC50 [2]: > 8 nM
AUC [3]: 0.982
IC50 [3]: > 20000 nM

HPAC (pancreas, adherent)
AUC [2]: 0.866
IC50 [2]: > 8 nM
AUC [3]: 0.875
IC50 [3]: > 20000 nM

Hs940-T (melanoma, adherent)
AUC [1]: 0.981
IC50 [1]: > 500 nM
AUC [3]: 0.98
IC50 [3]: > 20000 nM

IM-95 (stomach, adherent)
AUC [2]: 0.982
IC50 [2]: > 8 nM
AUC [3]: 0.976
IC50 [3]: > 20000 nM

JEKO-1 (B-cell lymphoma, suspension)
AUC [1]: 0.985
IC50 [1]: > 500 nM

Jurkat (T-cell leukaemia, suspension)
AUC [1]: 0.992
IC50 [1]: > 500 nM

K-562 (chronic myeloid leukaemia, suspension)
AUC [2]: 0.987
IC50 [2]: > 8 nM

KARPAS-1106P (B-cell lymphoma, suspension)
AUC [1]: 0.993
IC50 [1]: > 500 nM

KASUMI-1 (acute myeloid leukaemia, suspension)
AUC [1]: 0.963
IC50 [1]: > 500 nM
AUC [3]: 0.947
IC50 [3]: > 20000 nM

KMS-11 (myeloma, suspension)
AUC [1]: 0.979
IC50 [1]: > 500 nM
AUC [3]: 0.975
IC50 [3]: > 20000 nM

KYSE-140 (oesophagus, adherent)
AUC [2]: 0.982
IC50 [2]: > 8 nM
AUC [3]: 0.984
IC50 [3]: > 20000 nM

NCI-H748 (small cell lung carcinoma, suspension)
AUC [2]: 0.975
IC50 [2]: > 8 nM
AUC [3]: 0.915
IC50 [3]: > 20000 nM

NCI-H929 (myeloma, suspension)
AUC [1]: 0.985
IC50 [1]: > 500 nM

NCI-H2066 (small cell lung carcinoma, adherent)
AUC [1]: 0.948
IC50 [1]: > 500 nM

NCI-H2171 (small cell lung carcinoma, suspension)
AUC [2]: 0.99
IC50 [2]: > 8 nM
AUC [3]: 0.991
IC50 [3]: > 20000 nM

NCI-H2196 (small cell lung carcinoma, adherent)
AUC [2]: 0.986
IC50 [2]: > 8 nM
AUC [3]: 0.98
IC50 [3]: > 20000 nM

NCI-H2228 (lung adenocarcinoma, adherent)
AUC [2]: 0.977
IC50 [2]: > 8 nM
AUC [3]: 0.976
IC50 [3]: > 20000 nM

NK-92MI (lymphoid neoplasm, suspension)
AUC [2]: 0.988
IC50 [2]: > 8 nM

SCC-3 (B-cell lymphoma, suspension)
AUC [2]: 0.995
IC50 [2]: > 8 nM
AUC [3]: 0.992
IC50 [3]: > 20000 nM

SKM-1 (haematopoietic neoplasm, suspension)
AUC [1]: 0.974
IC50 [1]: > 500 nM

SNU-175 (large intestine, suspension)
AUC [3]: 0.966
IC50 [3]: > 20000 nM

SNU-475 (liver, adherent)
AUC [2]: 0.991
IC50 [2]: > 8 nM
AUC [3]: 0.991
IC50 [3]: > 20000 nM

SNU-1040 (large intestine, adherent)
AUC [1]: 0.963
IC50 [1]: > 500 nM
AUC [3]: 0.982
IC50 [3]: > 20000 nM

SU-DHL-1 (anaplastic large cell lymphoma, suspension)
AUC [2]: 0.997
IC50 [2]: > 8 nM
AUC [3]: 0.997
IC50 [3]: > 20000 nM

SU-DHL-10 (B-cell lymphoma, suspension)
AUC [1]: 0.993
IC50 [1]: > 500 nM
AUC [3]: 0.998
IC50 [3]: > 20000 nM

SW1116 (large intestine, adherent)
AUC [1]: 0.984
IC50 [1]: > 500 nM
AUC [3]: 0.98
IC50 [3]: > 20000 nM

TALL-1 (T-cell lymphoblastic leukaemia, suspension)
AUC [2]: 0.99
IC50 [2]: > 8 nM
AUC [3]: 0.989
IC50 [3]: > 20000 nM

TE-441-T (rhabdomyosarcoma, adherent)
AUC [2]: 0.989
IC50 [2]: > 8 nM
AUC [3]: 0.989
IC50 [3]: > 20000 nM

U-266 (myeloma, semi-adherent)
AUC [1]: 0.981
IC50 [1]: > 500 nM

UACC-812 (breast, adherent)
AUC [2]: 0.983
IC50 [2]: > 8 nM
AUC [3]: 0.988
IC50 [3]: > 20000 nM

VM-CUB-1 (bladder, adherent)
AUC [2]: 0.968
IC50 [2]: > 8 nM
AUC [3]: 0.985
IC50 [3]: > 20000 nM

YMB-1-E (breast, adherent)
AUC [3]: 0.965
IC50 [3]: > 20000 nM

— the supplement of paper PMC4967469
